Hit rate of the full screen: of about 330,000 compounds, about 4,200 (1.3%) were called active. This list was built around the results that the source calls inconclusive (neither active nor inactive); the mix of calls is not that of the screen. Calls follow the shape of the dose curve; as a rule, active = well fitted activation curve with a large enough effect; inconclusive = small, poorly fitted or top-dose-only effect; inactive = no such curve, though single readings can be large or run the other way. A potency beside an inconclusive call is a rough fit, not a confirmed value.
Assay: qHTS screen for small molecules that induce genotoxicity in human embryonic kidney (HEK293T) cells expressing luciferase-tagged ELG1; also: nearly all actives have a fitted effect of over 60% in size
Conditions: HEK293T ELG1-luciferase reporter, luminescence, 16 h; series mostly up to 46 µM
Outline: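 Cells (2,000/well) expressing the ELG1-luciferase fusion are dosed by pin tool and kept 16 hr at 37 °C, 5% CO2. Signal comes from ONE-Glo luciferase reagent after 30 min at room temperature.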
In the case of `CCN(CC)c1ccc(/C=N/N2CCOCC2)cc1`, the Potency is reported as active: 7.31 µM. For `O=C(NC1CCCCCC1)c1ccc(OCC2CCCO2)cc1` (stereo not drawn), the Potency was inconclusive: 9.2 µM [activator, partial curve]. With `CN(C)C(=O)COc1ccc2cc(-c3ccccc3)c(=O)oc2c1` the Potency was inconclusive: 18.4 µM [activator, partial curve]. For `COc1ccc(S(=O)(=O)Nc2ccc(Oc3ccsc3C(=O)O)cc2)cc1`, the Potency was “inactive”. With `O=C(Nc1ccc(-c2noc(COc3ccccc3Cl)n2)cc1)c1ccco1` the Potency was inconclusive: 20.6 µM [activator, partial curve]. For `O=[N+]([O-])c1ccc(/C=N/N2CCCCC2)cc1`, the Potency was inconclusive: 7.3 µM [activator, partial curve]. In the case of `O=C(c1ccc(N2CCOCC2)cc1)c1cccs1`, the Potency is reported as inconclusive: 1.84 µM [activator, full curve]. For `Cc1nn(-c2ccccc2)c(C)c1/C=N\N1CCN(c2ccc(Cl)cc2)CC1`, the Potency was inconclusive: 13 µM [activator, partial curve]. With `Cc1ccc(C)c(NC(=S)c2nc3ccccc3s2)c1` the Potency was “inactive”. In the case of `N#Cc1c(/N=C/c2ccc(Br)s2)sc2c1CCC2`, the Potency is reported as inconclusive: 4.11 µM [activator, partial curve]. With `O=C(CCNC(=O)c1ccccc1Cl)Nc1nc2ccc(F)cc2s1` the Potency was “inactive”. With `CC(O)CSc1nc2c(c(=O)[nH]c(=O)n2C)n1Cc1ccccc1` (stereo not drawn) the Potency was inconclusive: 23.1 µM [activator, partial curve, poor fit]. With `O=C(/C=C/c1ccccc1)N1CCC(c2ccccc2)C1` (stereo not drawn) the Potency was active: 6.51 µM. For `COc1cc(SC)ccc1C(=O)NC1CCCCC1`, the Potency was inconclusive: 29.1 µM [activator, partial curve, poor fit]. In the case of `Nc1nonc1-c1noc(-c2ccccc2Br)n1`, the Potency is reported as inconclusive: 11.6 µM [activator, partial curve, poor fit]. With `COC(=O)c1ccc(CSc2nncn2C)cc1` the Potency was inconclusive: 14.1 µM [activator, partial curve, poor fit]. For `c1ccc(-c2ccc(-c3nc(-c4ccncc4)no3)cc2)cc1`, the Potency was active: 1.64 µM. For `Cn1cccc1/C=N/NC(=O)c1ccccn1`, the Potency was inconclusive: 16.4 µM [activator, partial curve]. For `O=C(c1cc2c(ccc3ccccc32)o1)N1CCCCC1`, the Potency was inconclusive: 0.651 µM [activator, full curve]. For `c1ccc2[nH]c(SCCN3CCOCC3)nc2c1`, the Potency was inconclusive: 23.1 µM [activator, partial curve, poor fit]. With `CC(Oc1ccc2cc(-c3ccccc3)c(=O)oc2c1)C(=O)NCC1CCC(C(=O)O)CC1` (stereo not drawn) the Potency was “inactive”. In the case of `COc1ccc(NC(=O)Nc2ccc3c(c2)CC(=O)N([C@H](C)CO)C[C@H](C)[C@H](CN(C)Cc2ccc(C(=O)O)cc2)O3)cc1`, the Potency is reported as “inactive”. In the case of `N#CCCN/N=C(/Cc1nc2ccccc2[nH]1)c1ccc(Cl)cc1`, the Potency is reported as inconclusive: 10.3 µM [activator, partial curve]. For `O=C(CS(=O)(=O)c1ccccc1)N1CCCCCC1`, the Potency was inconclusive: 18.4 µM [activator, single point]. In the case of `Clc1cccc(/C=N/Nc2ncnc3ccccc23)c1`, the Potency is reported as inconclusive: 5.8 µM [activator, full curve]. With `COCC(=O)n1nc(-c2ccccc2)nc1NCc1cccs1` the Potency was inconclusive: 20.6 µM [activator, partial curve, poor fit]. For `O=C(NCc1ccccc1)c1ccc(-c2ccc(F)cc2)o1`, the Potency was inconclusive: 13 µM [activator, partial curve, poor fit]. For `Clc1c(-c2ccccc2)nc2ccccn12`, the Potency was inconclusive: 13 µM [activator, single point]. In the case of `Fc1ccccc1/C=N/Nc1ncnc2nc[nH]c12`, the Potency is reported as active: 20.6 µM. In the case of `COc1ccc(Nc2cc(C)nc3ncnn23)cc1Cl`, the Potency is reported as inconclusive: 20.6 µM [activator, partial curve, poor fit]. With `CN(Cc1nccn1C)C(=O)c1ccc2nc(Cc3ccccc3F)oc2c1` the Potency was inconclusive: 18.3 µM [activator, partial curve]. For `O=C(Nc1ccn(Cc2ccc(Cl)cc2)n1)c1ccccc1`, the Potency was inconclusive: 8.2 µM [activator, partial curve]. With `COC(=O)CNc1c(-c2ccccc2)nc2ccc(Br)cn12` the Potency was inconclusive: 12.6 µM [activator, partial curve, poor fit]. In the case of `c1ccc(SCc2nc(-c3ccccn3)no2)cc1`, the Potency is reported as active: 18.4 µM. With `CC1(C)CC2(CCO1)OC(=O)CC2C(=O)Nc1ccccc1Cl` (stereo not drawn) the Potency was “inactive”. With `Clc1cccc2sc(N3CCCC3)nc12` the Potency was inconclusive: 16.4 µM [activator, partial curve]. For `Cc1cc(Cl)ccc1Nc1ncccc1C(N)=O`, the Potency was inconclusive: 20.6 µM [activator, partial curve]. For `COc1c(Cl)cccc1-c1cn2ccc(C)cc2n1`, the Potency was inconclusive: 2.31 µM [activator, full curve]. In the case of `Cc1nc2c(-c3ccccc3)cnn2c(N2CCOCC2)c1C`, the Potency is reported as active: 6.51 µM. In the case of `Cc1cccc(NC(=O)CSCC(=O)N(CCC(C)C)c2c(N)n(Cc3ccccc3)c(=O)[nH]c2=O)c1`, the Potency is reported as “inactive”. In the case of `COc1ccc2c(=O)c(-c3ccc4c(c3)OCO4)coc2c1`, the Potency is reported as active: 2.91 µM. With `Cc1cc(C(=O)Nc2nc3c(s2)CCCC3)cs1` the Potency was inconclusive: 1 µM [activator, full curve, poor fit]. With `O=Cc1c(OCc2ccccc2)ccc2ccccc12` the Potency was inconclusive: 8.2 µM [activator, partial curve, poor fit]. With `Cc1ccc(-c2nc(CN(Cc3cnn(C)c3)C(C)C)c(C)o2)o1` the Potency was “inactive”. With `CCN(CC)C(=O)c1cc(-c2ccc3c(c2)OCO3)on1` the Potency was inconclusive: 20.6 µM [activator, partial curve]. In the case of `CCCC(=O)Nc1ccc(-c2nc3ncccc3o2)cc1`, the Potency is reported as inconclusive: 6.51 µM [activator, partial curve]. For `CC1=NOC(=O)/C1=C\c1ccc2c(c1)OCO2`, the Potency was inconclusive: 23.1 µM [activator, single point]. For `CCOC(=O)c1cnn2c(C)cc(-c3ccc(F)cc3)nc12`, the Potency was inconclusive: 16.4 µM [activator, partial curve]. For `CC(=O)N1CCC(=O)Nc2ccc([N+](=O)[O-])cc21`, the Potency was inconclusive: 9.2 µM [activator, partial curve, poor fit]. For `Cc1nnc(SCc2cnc(-c3ccc(C(C)C)cc3)s2)n1C`, the Potency was inconclusive: 2.59 µM [activator, single point]. With `Nc1ccc(C(=O)NC23CC4CC(CC(C4)C2)C3)cc1` the Potency was “inactive”. For `Cc1cc(NC(=O)Nc2ccccc2F)ccc1Br`, the Potency was inconclusive: 0.92 µM [activator, full curve]. In the case of `Cc1cccc(Cn2c(=O)c3c(nc4n3CCCN4Cc3ccccc3)n(C)c2=O)c1`, the Potency is reported as “inactive”. In the case of `CN[C@H]1CCc2cc(OC)c(OC)c(OC)c2-c2ccc(N(C)CC(OC)OC)c(=O)cc21`, the Potency is reported as inconclusive: 6.51 µM [activator, partial curve]. In the case of `CC1CC(C)CN(CCCNC(=O)c2ccc3c(c2)ncn3C2CCCC2)C1` (stereo not drawn), the Potency is reported as “inactive”. For `O=C(Nc1ccc(OCc2ccccc2Cl)cc1)c1cccnc1`, the Potency was “inactive”. In the case of `O=C(CSc1nnc(-c2ccccn2)o1)Nc1ccccc1C(F)(F)F`, the Potency is reported as inconclusive: 20.6 µM [activator, partial curve, poor fit]. For `Cc1ccc2c(CC(=O)Nc3sccc3C(N)=O)coc2c1`, the Potency was inconclusive: 8.2 µM [activator, partial curve]. For `O=C(Nc1nccs1)c1ccc(-c2ccc([N+](=O)[O-])cc2)o1`, the Potency was inconclusive: 10.3 µM [activator, partial curve]. With `COc1cc(OC)c(OC)cc1/C=C1/Cc2ccccc2C1=O` the Potency was “inactive”. For `COc1ccc(-c2nn(-c3ccccc3)cc2N)cc1`, the Potency was inconclusive: 16.4 µM [activator, partial curve]. In the case of `Cc1ccc(C)c(-n2c(-c3ccc(Br)cc3)csc2=NC(=O)c2ccccc2F)c1`, the Potency is reported as “inactive”. With `C=CCn1c(C)cc(C(=O)Cn2ncc(Cl)c(Cl)c2=O)c1C` the Potency was “inactive”. For `Cn1c(=O)cc(SCC(=O)N2CCCC2)c2ccccc21`, the Potency was inconclusive: 11.6 µM [activator, partial curve, poor fit]. With `COc1ccc2nc(NC(=O)c3ccccc3F)sc2c1` the Potency was inconclusive: 2.06 µM [activator, partial curve]. With `COc1ccc(-c2nc(C3CCCCC3)no2)cc1OC` the Potency was inconclusive: 14.6 µM [activator, partial curve]. In the case of `O=C(C=C=Nc1ccccc1)C(=O)N=C=Cc1ccccc1`, the Potency is reported as inconclusive: 16.4 µM [activator, partial curve, poor fit]. For `Cn1cc(C(=O)N/N=C/c2cccc(O)c2)ccc1=O`, the Potency was “inactive”. With `O=C(Oc1oc(-c2ccco2)nc1C=Nc1ccc(Cl)cc1)c1ccco1` the Potency was inconclusive: 18.4 µM [activator, partial curve, poor fit]. In the case of `COc1ccc2nc(/N=C/c3cccc(OC)c3O)sc2c1`, the Potency is reported as inconclusive: 29.1 µM [activator, partial curve, poor fit]. With `Cc1cccc(N/N=C/c2ccc(C)s2)c1` the Potency was inconclusive: 13 µM [activator, partial curve, poor fit]. For `CCN(C(=O)c1cc2c(=O)n3ccccc3nc2n1C)C1CCCCC1`, the Potency was “inactive”. In the case of `CCN(Cc1nc2ccccc2c(=O)[nH]1)C(=O)c1cccc(OCc2c(C)noc2C)c1`, the Potency is reported as “inactive”.

Reference: PubChem BioAssay AID504466 (National Center for Advancing Translational Sciences (NCATS), 2011)
Potency is read from the fitted curve at half-maximal effect; tags tell the direction and shape of the fitted curve.
